# Data reported in article PMC6212790.
# This is one part of the list. At the low end of the ranking, values are background and their order means little.
# Biological target: T1, GST-Rok-C97-191 (UniProt O34857)
# T1 sequence: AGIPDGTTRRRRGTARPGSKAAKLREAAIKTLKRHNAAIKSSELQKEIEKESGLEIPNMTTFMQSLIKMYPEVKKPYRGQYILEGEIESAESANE
# Experiment: protein binding microarray;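 note: rank score from −0.5 (least bound) to 0.5 (best bound)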
# Conditions: Rok is a gene silencer of Bacillus subtilis; high values mean tight binding; most listed sequences are background and not binding sites; double strand, one strand shown
row,Sequence,binding signal [E-score]
1,ACGTGCTA,0.106
2,ACCCAGAG,-0.137
3,CCGTCTAA,-0.0284
4,CCGATTGC,0.116
5,CAATATCC,-0.00246
6,CGTGTGAC,-0.206
7,TACCGCGA,0.0284
8,AGCGATCG,-0.201
9,AGGTAAGA,0.108
10,CTCTGTAA,0.0493
11,ACCAGCGT,-0.127
12,AAATGAAA,0.0941
13,AGCCTGGC,-0.293
14,CAGCTCGG,-0.0345
15,GCCCGCAA,-0.245
16,AAGCTGTC,0.0421
17,CTCATCCA,0.00151
18,AATATTAT,0.21
19,CTGTACGA,0.094
20,CCTCTTAC,-0.0943
21,GCTAGAGA,0.121
22,GGAGTAGA,0.102
23,AGTCGATA,0.212
24,AGATCTAG,0.202
25,TATAAAGA,-0.131

row,Sequence,binding signal [E-score]
1,ACAATCAC,-0.0201
2,ATAAGCTG,-0.0096
3,ACCATCTA,0.31
4,ACAAGTAC,0.25
5,TCAGAACA,-0.0454
6,CCAACTCA,-0.0447
7,GATACATA,0.377
8,GCCAGGCA,-0.21
9,GCAGAGTA,-0.0358
10,AACAGGCC,-0.276
11,CGGTAATA,0.315
12,AACGTAAA,0.0617
13,ATCTGAAC,0.0923
14,GGACTTTA,-0.19
15,GGGCTTGA,-0.304
16,ACGTAAAG,0.0169
17,GTGTCCCA,-0.165
18,AACGTAAG,-0.0867
19,ACTGCTTG,0.117
20,CGTCGGCA,-0.336
21,AATGTGCC,0.114
22,GCGAAAAA,0.135
23,TCAGAAGA,-0.0615
24,ACTGGTTG,-0.0208
25,ACATATGT,0.4

row,Sequence,binding signal [E-score]
1,ATAGGCGG,-0.17
2,ACAAGTAG,0.274
3,GGTGCTTA,-0.1
4,CATTTCCG,-0.0941
5,GCCGAGGA,-0.272
6,ACGCCGGC,-0.345
7,AACCTGCG,-0.0596
8,ACTAGCTA,0.397
9,GCCCCAGC,-0.368
10,CTCGCCGC,-0.2
11,CATCCGGG,-0.117
12,GCCAAGAA,-0.0724
13,GCGCTTCC,-0.148
14,TACAACCA,0.0162
15,AGACTGCT,-0.066
16,GGCTGGCA,-0.299
17,CATATCCC,0.0856
18,GCCGTAAA,-0.0195
19,CCAGAACC,-0.0982
20,CCGGCGTC,-0.273
21,ATAACCAT,0.199
22,CATTCAGA,-0.0179
23,ATAGGCGC,-0.0965
24,GACGTAGA,0.0341
25,CCAACTGG,-0.142

row,Sequence,binding signal [E-score]
1,AATTAGCC,0.0609
2,AAAAGGAA,-0.0215
3,ACAAGACC,-0.248
4,GCATTCAA,-0.0287
5,ATGTCCCC,-0.198
6,AAGTAATA,0.29
7,AGGAAACC,-0.266
8,AGTAGGAT,0.283
9,GAGATACC,0.0658
10,AAAGCCTC,-0.162
11,GACCCTTA,-0.0728
12,CGCAACCA,-0.0628
13,CACCCTCC,-0.00354
14,CGTTTCAC,-0.234
15,AGTGCGAG,-0.186
16,CCTATCTC,0.0249
17,AAAGGCAG,-0.0965
18,AGTCTGAA,-0.139
19,CCAGCTGC,-0.0489
20,AGCAGTGC,-0.228
21,CACATCTA,0.151
22,AGCGTGTC,-0.00288
23,AGTCGTAT,-0.0181
24,AACTCTTC,-0.0797
25,AAACTGCA,0.0449

row,Sequence,binding signal [E-score]
1,AGTACTGC,0.129
2,AAGGATAC,-0.0403
3,ATACACGC,0.216
4,GAACGGCA,-0.112
5,AGGGAGAT,-0.0598
6,AGTATTAG,0.295
7,CAAGTTAA,0.0265
8,CACGGGAC,-0.308
9,GTAGAATA,0.305
10,CAGAATAG,0.00183
11,CCAAGTTC,-0.0242
12,GTCAATCA,-0.125
13,ACTAATTG,0.189
14,ATATTACG,0.174
15,CCCCAATC,-0.228
16,GACCATCC,-0.118
17,CACAGTCG,-0.1
18,ACCTCTCC,-0.177
19,AGTAAGAG,-0.16
20,ACAGTCCC,-0.126
21,GAGGATAC,-0.102
22,GTGCGTAA,0.00713
23,AAGCGGAG,-0.174
24,CCATCAGG,-0.0317
25,ACGCGCTG,-0.118

row,Sequence,binding signal [E-score]
1,AAAGCGTG,-0.172
2,ACATACTG,0.15
3,ATTATGTG,0.169
4,CCATGGGC,-0.255
5,AAGAGGAG,-0.144
6,CCCCGTTA,-0.201
7,ACAGCTAT,0.172
8,GATTAACC,-0.127
9,GGGCGACA,-0.13
10,CCGGGCCA,-0.276
11,ATAGATTC,0.34
12,CAGGCTGC,-0.206
13,ATTTGGGA,-0.159
14,CGGATCCC,-0.0495
15,CCGCAGAA,-0.0471
16,GCCCATTA,-0.125
17,GGAGACTA,-0.021
18,CCGATTAG,0.0111
19,CCTCGTTA,-0.00496
20,AGCAAAGG,-0.14
21,GTTGTACA,0.25
22,CCCTGTCC,-0.115
23,TGTGAGAA,0.235
24,AAGGCACC,-0.142
25,CGTATCTC,0.111

row,Sequence,binding signal [E-score]
1,ATGCTATG,0.114
2,GGTGGGCA,-0.162
3,ACACCGAT,0.0923
4,AAGCTATG,0.0107
5,AGAGATGA,-0.0749
6,ATCACTCA,0.0646
7,CAACCACA,0.0325
8,CGCGTGGC,-0.276
9,CCATCACC,-0.16
10,GAACTCTC,0.084
11,ACCAGCTC,-0.204
12,GAGCTGGC,-0.0572
13,ACCCGAAA,-0.00438
14,CGTCCAGC,-0.122
15,CGATGAGA,0.0868
16,AAAGCCTA,0.0302
17,AGTTAGGA,0.229
18,GACGCTGC,-0.153
19,CTTCTTCA,-0.143
20,AGGTAGCA,0.147
21,ATCCAGGA,0.0472
22,ATGGGTCG,-0.0474
23,ACCATATA,0.196
24,GCCCCACA,-0.231
25,AGATGCCC,-0.206

row,Sequence,binding signal [E-score]
1,CTGATCTC,0.027
2,AAAGCTTC,-0.0436
3,CCGTCGGC,-0.185
4,AGGACTCC,-0.313
5,CCTGGCCG,-0.235
6,ATCATGAA,0.128
7,GGCCCGTA,-0.0434
8,TCGCAAGA,0.0127
9,ACCGGTAT,0.253
10,AGATAATA,0.267
11,CGTAGTAC,0.186
12,AGTAACTC,0.0388
13,CAAGTAGA,0.303
14,ATATGGAC,-0.0545
15,GGCCAGGA,-0.169
16,CAGGATCC,-0.151
17,ACTTCCGG,-0.139
18,GATGCATC,-0.0465
19,ACCGCACT,-0.0355
20,ACCCGCTA,0.0179
21,CTTGGACC,-0.209
22,GAATATAA,0.176
23,AACAAGCA,0.0447
24,CAAAGATG,-0.242
25,ATTCAACC,-0.0626

row,Sequence,binding signal [E-score]
1,GCCTTTCA,-0.292
2,ATTCCAGA,0.142
3,CACAACAC,0.0533
4,TCCTTGAA,-0.147
5,GGTGGGAC,-0.143
6,AGATGTGG,-0.141
7,ACAATGCG,0.08
8,AGTTGGAT,0.0705
9,TCGTACAA,0.053
10,TCTAACCA,0.0979
11,GCTATCGA,0.102
12,CCGGTTGC,-0.337
13,GCACGGAA,0.11
14,ACCCCAAC,-0.0328
15,AAGGAGGG,-0.215
16,AACCCTTC,-0.0825
17,GCTGCGAA,-0.102
18,CCAGAATA,0.123
19,GAAAATGC,0.0717
20,GACGGATC,-0.132
21,AGGAGTGC,-0.137
22,ACTGCCGG,-0.0912
23,ACCCCGGT,-0.183
24,GGGTAGGA,-0.0141
25,AAGCATCA,0.00544

row,Sequence,binding signal [E-score]
1,GGATGAGA,0.00888
2,ACTGTGCA,0.0635
3,GCATGACC,-0.238
4,CCGTTTTC,-0.216
5,CTAGCCCA,-0.177
6,CTCGAGCA,-0.0442
7,CAGAAATC,-0.0459
8,GTCTGGAA,-0.244
9,GAAGGGAC,-0.267
10,ACAATGGC,0.0354
11,CGGCTGAG,-0.0955
12,ACTACTGA,0.269
13,GTAATAAC,0.0936
14,GGTTCGAC,-0.0794
15,AGCCTCGC,-0.208
16,AATAGAGG,0.0621
17,CAGTTTGG,-0.165
18,GATGTATA,0.285
19,TAACCCGA,-0.168
20,CGGAATTA,0.178
21,ACTAAGAC,0.0719
22,GCTAATGA,-0.097
23,AAATTATG,0.224
24,AACAAGGC,-0.278
25,AAATAAGC,0.159

row,Sequence,binding signal [E-score]
1,CCCCTCTA,-0.202
2,GATGAGAC,-0.263
3,AAAGCGTT,0.0551
4,CCTCTCCC,-0.348
5,TCGGCACA,-0.161
6,ACGGAAGC,-0.231
7,ATCAACTG,0.0687
8,CTTGACAC,-0.0785
9,ATCCGGCG,-0.0701
10,CCCTAGCG,-0.135
11,AACTCTTG,-0.0959
12,ACGATCCT,-0.0661
13,CTCTTTTC,-0.0711
14,GCATAAAA,0.202
15,ATCCTTTG,-0.0225
16,CAAAATTA,0.266
17,ATGCGTTC,-0.00129
18,GCCTAGAC,-0.242
19,GAGCCACA,-0.286
20,ATCACGAC,-0.026
21,CAACCAGA,-0.237
22,ATGCAGAC,-0.144
23,GACGCCCC,-0.273
24,AACGCTGC,-0.0555
25,TCAGTGCA,-0.0533

row,Sequence,binding signal [E-score]
1,CCGTGGAC,-0.286
2,ACAGATAT,0.185
3,TGACAGAA,-0.071
4,CAATGCCC,-0.253
5,CCAGCAAC,0.11
6,AGCAACAA,0.167
7,AAGCTTAG,0.045
8,ATCGTAAC,0.162
9,AAACCGTT,-0.0352
10,GAACGGGA,-0.108
11,GGCGAGGA,-0.239
12,CGGAGGTC,-0.272
13,CCTCGGAC,-0.185
14,CGGAGCGA,-0.155
15,ATGTACAT,0.377
16,AAGCGCCT,-0.0269
17,GTGGAATA,0.208
18,AAAGGACA,-0.115
19,ATTAAAAC,0.144
20,AATTCGGA,0.174
21,CCCTGGCG,-0.256
22,AACCCGAG,-0.128
23,CACATCTC,0.00587
24,ATGAGACA,-0.0215
25,CAGTGCAC,-0.0299

row,Sequence,binding signal [E-score]
1,CTCTCGAC,-0.0912
2,CTGATGCC,-0.172
3,AAGAATGA,0.101
4,ACATTACT,0.263
5,AGCCTGCA,-0.113
6,CATACTAC,0.284
7,CCAAAGAA,-0.0436
8,CTATCGAC,0.176
9,AAATGCAC,0.0955
10,CCGCAGAC,-0.128
11,ATAGTTCG,0.354
12,GCACGTCC,-0.0878
13,GAAATGGA,-0.0823
14,GTTATATA,0.31
15,ACGGCCGT,-0.0467
16,ACGGTCAT,-0.00187
17,CATGCCAA,-0.12
18,AGCTCATG,-0.059
19,GGTACACA,0.0356
20,AAACGTAG,0.109
21,AGCAGTTC,-0.0114
22,ACGGCTGC,0.0759
23,ATATAGGA,0.185
24,TAGTCAAA,0.158
25,CGGACGTC,0.0407

row,Sequence,binding signal [E-score]
1,CGGGAGAC,-0.189
2,GCAAACTA,0.385
3,GCGCCAGC,-0.0952
4,CACGTTGA,0.0325
5,AGGGGGGA,-0.24
6,ACACGGGG,-0.055
7,TGAACTAA,0.0629
8,GGAGATCA,-0.0617
9,CCTGATGA,-0.17
10,CTGTTGGC,-0.158
11,ACAGCATC,-0.0826
12,GGATACGA,0.0298
13,GAGAAGAC,-0.0353
14,AGGCTATC,-0.0801
15,AGCCTAGG,-0.261
16,CCTGCGGA,-0.211
17,AAGGGCTG,-0.344
18,ATCCGGAC,-0.0292
19,TAGAGGAA,0.0474
